Measured values taken from PubChem BioAssay AID485294 (National Center for Advancing Translational Sciences (NCATS), 2010).
Several values for one entry are separate records, joined by “and”; a condition that tells them apart may be missing. Equal entries are not always repeated. The campaign covered roughly 370,000 compounds. About 150 (0.041%) were called active. Inconclusive results, whose numbers are uncertain, are shown with a selection of clear calls. The call rests on the fitted dose curve; in most records, active means well fitted inhibition curve with a large enough effect; inconclusive means small, poorly fitted or top-dose-only effect; inactive means flat fitted curve, though single readings scatter. Where the call is inconclusive, the potency comes from a doubtful curve fit.

Target: Beta-lactamase (Escherichia coli (strain K12)) (UniProt P00811)
Sequence of UniProt P00811 (P00811 whole entry, looked up): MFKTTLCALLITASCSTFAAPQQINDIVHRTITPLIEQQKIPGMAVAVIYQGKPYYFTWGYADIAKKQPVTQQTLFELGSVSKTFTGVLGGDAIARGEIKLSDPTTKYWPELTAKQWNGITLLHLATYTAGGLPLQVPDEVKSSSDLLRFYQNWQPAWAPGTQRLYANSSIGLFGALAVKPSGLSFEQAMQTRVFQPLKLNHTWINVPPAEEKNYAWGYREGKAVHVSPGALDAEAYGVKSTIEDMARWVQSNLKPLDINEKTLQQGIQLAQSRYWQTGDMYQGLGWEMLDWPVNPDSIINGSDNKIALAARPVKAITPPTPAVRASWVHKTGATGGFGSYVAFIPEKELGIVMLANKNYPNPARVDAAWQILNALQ
Assay: qHTS Inhibitors of AmpC Beta-Lactamase (assay with detergent); further: nearly all actives have a fitted effect of over 25% in size;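 on activity change, negative = inhibition: 0% = no-compound wells and -100% = no-enzyme wells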
Conditions: AmpC hydrolysis of nitrocefin, absorbance 480 nm, 0.01% Triton; activity change, negative = inhibition: at 114 µM (top of the series)
Outline: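 20 mM phosphate pH 7.0 + 0.01% (detergent screen) or 0.0001% Triton X-100; 5.3 nM AmpC reagent; cpd preinc 15 min RT; nitrocefin (800 uM stock) to start; A480 q20 s × 4 min; Activity was normalised to no-enzyme and no-compound control wells.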
Potency means the concentration at half of the fitted maximal effect; tags describe the fitted curve by direction and shape.

Structure (SMILES)	Potency	activity change, negative = inhibition
CC(C)OCC(O)Cn1c(N2CCCC2)nc2c1c(=O)[nH]c(=O)n2C (stereo not given)	inconclusive: 3.98 µM [inhibitor, full curve, poor fit]	
Cc1cc(OCC(=O)O/N=C(\N)c2ccccc2)ccc1Br	inconclusive: 112 µM [inhibitor, partial curve, poor fit]	
CC(=O)c1c(C)n(-c2ccc(C)cc2C)c2ccc(O)cc12	inconclusive: 89.1 µM [inhibitor, single point]	
CCOC(Cn1c(SCc2cc(C(C)=O)ccc2OC)nc2ccccc2c1=O)OCC		inactive: -0.53%
O=c1[nH]c(C(Cl)Cl)nc2sc3c(c12)CCN(Cc1ccccc1)C3	inconclusive: 31.6 µM [inhibitor, partial curve]	
CC(C)(O)[C@H](O)COc1c2ccoc2cc2oc(=O)ccc12	inconclusive: 44.7 µM [inhibitor, full curve, poor fit]	
Cc1ccc2c(c1)c1c(n2CC(O)CNC2CCCC2)CCCC1 (stereo not given)		inactive: 1.78%
CCOC(=O)N1CCN(c2c(NCc3ccc(Cl)cc3)c(=O)c2=O)CC1	inconclusive: 7.94 µM [inhibitor, full curve, poor fit]	
COc1ccccc1CNC(=O)c1cnc2ccccn2c1=O	inconclusive: 11.2 µM [inhibitor, partial curve, poor fit]	
C=CCSc1nnc(C)c(/C=C/Nc2ccc(Cl)cc2)n1	inconclusive: 44.7 µM [inhibitor, partial curve]	
Cn1c(C(=O)NCC2CCCO2)cc2c(=O)n(C)c3ccccc3c21 (stereo not given)	inconclusive: 0.631 µM [inhibitor, full curve, poor fit]	
Cn1c(SC2=CS(=O)(=O)c3ccccc32)nc2ccccc21		inactive: 1.78%
COc1ccc(NC(=O)c2cccn(CC=C(C)C)c2=O)cc1	inconclusive: 0.316 µM [inhibitor, full curve, poor fit]	
Cc1nc2cc(O)ccc2n1C	inconclusive: 100 µM [inhibitor, single point]	
Cc1nc(-c2ccc(F)cc2)c(CC(=O)N(C)CC(=O)Nc2ccccc2Cl)s1		inactive: -0.52%
CCC[N+](CC#Cc1ccccc1)(CCC)CC(=O)OC	inconclusive: 0.708 µM [inhibitor, full curve, poor fit]	
COc1cccc(C(=O)Nc2cccc(-c3nc4ncccn4c3C)c2)c1		inactive: 2.89%
O=C(CSc1nccn1-c1cccc(Cl)c1)Nc1cccc2ccccc12		inactive: 2.36%
CCOc1ccc(CCNC(=O)CCCc2nnc3n(CC)c(=O)c4sccc4n23)cc1		inactive: -7.61%
COc1ccc(N(C)S(=O)(=O)c2cccc(C(=O)N3CCN(Cc4ccc5c(c4)OCO5)CC3)c2)cc1	inconclusive: 0.631 µM [inhibitor, full curve, poor fit]	
O=C1COc2cc(S(=O)(=O)CCC(=O)NC3CCCCC3)c(Cl)cc2N1		inactive: 6.56%
CCN(CC)c1nc2ccccc2nc1C(C#N)C(=O)NCCc1ccccc1 (stereo not given)	inconclusive: 50.1 µM [inhibitor, partial curve]	
CC1CCCCN1S(=O)(=O)c1ccc(C(=O)Nc2sccc2C(N)=O)cc1 (stereo not given)	inconclusive: 10 µM [inhibitor, full curve, poor fit]	

Structure (SMILES)	Potency	activity change, negative = inhibition
O=C(CSc1nnc(-c2ccc(OC(F)F)cc2)o1)NCc1cccs1	inconclusive: 39.8 µM [inhibitor, single point]	
O=C(NC(=S)Nc1ccc(N2CCOCC2)cc1)c1ccc2c(c1)OCCO2	inconclusive: 112 µM [inhibitor, partial curve]	
O=C(NCC1(c2ccccc2)CCCC1)C(=O)NCC1(c2ccccc2)CCCC1	inconclusive: 44.7 µM [inhibitor, partial curve]	
Cc1cc(C)n(Cc2ccc(Cl)nc2)n1	inconclusive: 100 µM [inhibitor, partial curve, poor fit]	
COc1ccc(NS(=O)(=O)c2ccc(-c3n[nH]c(=S)n3Cc3ccccc3)cc2)cc1		inactive: 2.78%
O=C(O)c1ccc2nc(-c3cc4cc(Cl)ccc4oc3=O)[nH]c2c1		inactive: 2.55%
Cc1ccc(CSc2nn3c(=O)c(C)nnc3s2)cc1		inactive: 3.19%
O=C(O)C1C2C=CC(C2)C1C(=O)NCc1cccnc1 (stereo not given)	inconclusive: 1.58 µM [inhibitor, full curve, poor fit]	
Cc1ccc(NS(=O)(=O)c2ccc(Cl)c(C(=O)Nc3cccc(C(=O)O)c3)c2)cc1	inconclusive: 0.316 µM [inhibitor, full curve, poor fit]	
Cc1ccc(/C=N/c2sc(Cc3ccccc3)c(C)c2C(N)=O)o1	inconclusive: 5.01 µM [inhibitor, partial curve]	
O=C(CCCCn1c(=O)c2ccccc2n(Cc2cccc(F)c2)c1=O)NCc1ccc2c(c1)OCO2		inactive: 2.79%
CCc1ccc(NC(=O)CCNS(=O)(=O)c2cccc3nsnc23)cc1	inconclusive: 44.7 µM [inhibitor, single point]	
Cc1cccc(Nc2c(-c3ccsc3)nc3nc(C)cc(C)n23)c1		inactive: 0.804%
COc1cccc(/C=C2\SC(=S)N(CCCC(=O)N3CCCC3)C2=O)c1		inactive: -3.64%
CCOc1ccc(NC(=O)c2nn(C)cc2Br)cc1	inconclusive: 20 µM [inhibitor, full curve]	
O=P(C(c1c[nH]c2ccccc12)N1CCOCC1)(N1CCOCC1)N1CCOCC1 (stereo not given)	inconclusive: 2.51 µM [inhibitor, full curve, poor fit]	
O=C(NCCOc1ccc(Cl)cc1)C1CCCCC1		inactive: -17.8%
COc1ccc(C)cc1NC(=O)c1cnc2ccc(C)cn2c1=O		inactive: 6.01%
COC(=O)c1ccccc1C(=O)N1CCOCCOCCOCC1	inconclusive: 89.1 µM [inhibitor, single point]	
CCN1C(=NCC(C)C)N[C@@H](c2cccc(C(F)(F)F)c2)C(C(=O)OC)=C1C	inactive and inconclusive: 50.1 µM [inhibitor, partial curve]	
CCC(=O)N1CCc2cc(S(=O)(=O)N3CCN(c4cc(C)ccc4C)CC3)ccc21	inconclusive: 14.1 µM [inhibitor, full curve, poor fit]	
CN(/N=C/c1cccnc1)C1=NS(=O)(=O)c2ccccc21	inconclusive: 39.8 µM [inhibitor, full curve]	
